Assay results: PubChem BioAssay AID1745853 (National Center for Advancing Translational Sciences (NCATS), 2022)
Some of the results follow. Further columns of the screen follow, without active or inactive calls.

Experiments:
Assay in all cases: Primary Screen for Target Class Profiling of Small Molecule Inhibitors of Methyltransferases
[1] = molecular target: Glycine N-methyltransferase (Homo sapiens) (UniProt Q14749); conditions: purified enzyme, MTase-Glo SAH luminescence; measured here: GNMT inhibition; at 40 µM; stronger effect = lower value
Procedure, shortened: (§1)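 Each enzyme was assayed with SAM and its substrate. SAH formation detected by MTase-Glo luminescence; single-point 40 uM screen[…].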

[2] = molecular target: Guanidinoacetate N-methyltransferase (Homo sapiens) (UniProt Q14353); conditions: purified enzyme, MTase-Glo SAH luminescence; measured here: GAMT inhibition; at 40 µM; stronger effect = lower value
Procedure, shortened: as §1

[3] = molecular target: Histamine N-methyltransferase (Homo sapiens) (UniProt P50135); conditions: purified enzyme, MTase-Glo SAH luminescence; measured here: HNMT inhibition; at 40 µM; stronger effect = lower value
Procedure, shortened: as §1

[4] = molecular target: Nicotinamide N-methyltransferase (Homo sapiens) (UniProt P40261); conditions: purified enzyme, MTase-Glo SAH luminescence; measured here: NNMT inhibition; at 40 µM; stronger effect = lower value
Procedure, shortened: as §1

[5] = molecular target: Phenylethanolamine N-methyltransferase (Homo sapiens) (UniProt P11086); conditions: purified enzyme, MTase-Glo SAH luminescence; measured here: PNMT inhibition; at 40 µM; stronger effect = lower value
Procedure, shortened: as §1
% is scaled to controls: 0 for no effect and ±100 for the full control effect.

Row | SMILES | activity change, negative = inhibition [1] [%] | activity change, negative = inhibition [2] [%] | activity change, negative = inhibition [3] [%] | activity change, negative = inhibition [4] [%] | activity change, negative = inhibition [5] [%]
1 | CCCn1c(C)cnc1CC1CCN(C(=O)NCc2ccc(OC)cc2)C1 (stereo not given) | -0.802 | -0.581 | -52.7 | -1.65 | -1.27
2 | COc1ccc(Cl)cc1N1C(=O)c2cc3ccccc3n2CC1(C)C(=O)NC1CCCC1 (stereo not given) | 8.05 | 0 | 8.03 | 8.7 | 4.01
3 | CCOc1ccccc1NC(=O)N1Cc2c(sc3c2CCCC3)-n2cccc2C1c1cccc(F)c1 (stereo not given) | -6.89 | 0 | -0.072 | 0.903 | -1.69
4 | COCCN1CC2(CCOC2)N(C2CCN(C(=O)c3ccc(OC)cc3)CC2)C1=O (stereo not given) | -2.22 | 0.172 | -0.133 | 0.467 | 1.76
5 | CCC(C)NC(=O)Cn1nc2nc(Nc3ccc(F)cc3)ccn2c1=O (stereo not given) | -14.8 | 0 | -11.6 | -10.1 | -11.6
6 | COc1ccc(CCNC(=O)c2cc3n(n2)CC(C)(C(=O)NC2CCCCC2)N(C)C3=O)c(OC)c1 (stereo not given) | -5.15 | -6.96 | -0.07 | -6.73 | -5.94
7 | Cn1c(=O)n(C)c2cc(S(=O)(=O)NCCc3ccc(Cl)cc3)ccc21 | 7.17 | 0 | 4.82 | 0.275 | 1.4
8 | CCOc1cccc(C2c3cccn3-c3sc4c(c3CN2C(=O)NC2CCCC2)CCCC4)c1 (stereo not given) | -4.43 | 0 | 1.62 | -2.42 | -0.495
9 | Cc1nn(C)c(C)c1CCC(=O)N1CCC(C2CCN(S(C)(=O)=O)CC2)C1 (stereo not given) | -1.01 | -0.814 | 1.22 | 2.79 | 2.12
10 | CCOC(=O)c1cc2n(n1)CC(C)(C(=O)NC1CCCC1)N(Cc1ccc(C)cc1)C2=O (stereo not given) | 1.74 | 0 | 1.66 | 1.1 | 3.61
